Measured values: article PMC6400558 (2019)
No constants are given. Whether binding was seen depends on the method and setting. In cells and extracts the contact can be indirect. Some binding calls cover weakened binding; strength is not graded here. For some assays here: Sequences can lack the tags named with a protein.

T1: MBP-tagged Hook2 Hook+CC1 (N427) WT (human) (UniProt Q96ED9)
T1 sequence: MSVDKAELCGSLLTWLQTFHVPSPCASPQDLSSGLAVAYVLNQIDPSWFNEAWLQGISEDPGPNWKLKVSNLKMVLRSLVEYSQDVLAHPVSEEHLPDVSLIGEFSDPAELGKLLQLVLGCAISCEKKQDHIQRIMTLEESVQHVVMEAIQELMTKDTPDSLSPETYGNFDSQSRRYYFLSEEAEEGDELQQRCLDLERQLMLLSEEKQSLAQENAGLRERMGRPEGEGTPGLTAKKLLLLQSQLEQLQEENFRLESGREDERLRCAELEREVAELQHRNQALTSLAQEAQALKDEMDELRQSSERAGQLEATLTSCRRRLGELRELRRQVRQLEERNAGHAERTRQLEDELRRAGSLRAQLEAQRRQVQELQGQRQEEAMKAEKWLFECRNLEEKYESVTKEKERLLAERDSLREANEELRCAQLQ

T2: MBP-tagged Hook2 N427 I150A (human) (UniProt Q96ED9)
T2 sequence: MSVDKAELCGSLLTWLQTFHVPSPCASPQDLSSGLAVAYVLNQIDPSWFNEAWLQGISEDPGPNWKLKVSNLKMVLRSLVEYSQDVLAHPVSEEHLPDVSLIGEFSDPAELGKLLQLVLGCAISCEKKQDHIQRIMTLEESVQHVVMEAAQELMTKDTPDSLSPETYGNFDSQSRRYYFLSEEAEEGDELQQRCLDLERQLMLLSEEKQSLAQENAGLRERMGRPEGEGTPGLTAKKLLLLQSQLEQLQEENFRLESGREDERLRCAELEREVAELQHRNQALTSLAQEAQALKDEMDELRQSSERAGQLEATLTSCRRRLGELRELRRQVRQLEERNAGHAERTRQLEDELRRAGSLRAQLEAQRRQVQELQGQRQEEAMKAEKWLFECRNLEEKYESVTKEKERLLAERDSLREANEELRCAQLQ

T3: MBP-tagged Hook2 N427 Q143A (human) (UniProt Q96ED9)
T3 sequence: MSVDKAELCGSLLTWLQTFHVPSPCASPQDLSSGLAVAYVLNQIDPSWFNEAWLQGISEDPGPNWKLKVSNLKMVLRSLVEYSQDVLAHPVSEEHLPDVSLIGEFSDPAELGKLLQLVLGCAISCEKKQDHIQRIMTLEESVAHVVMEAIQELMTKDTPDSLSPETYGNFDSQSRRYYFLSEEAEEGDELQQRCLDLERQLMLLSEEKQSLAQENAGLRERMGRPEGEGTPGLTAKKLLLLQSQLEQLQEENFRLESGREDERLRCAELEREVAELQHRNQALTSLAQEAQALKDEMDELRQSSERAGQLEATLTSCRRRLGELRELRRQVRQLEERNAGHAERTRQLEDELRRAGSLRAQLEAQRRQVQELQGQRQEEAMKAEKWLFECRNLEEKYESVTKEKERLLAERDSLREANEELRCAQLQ

T4: Hook2 (endogenous) (human (endogenous in HEK293T)) (UniProt Q96ED9)
T4 sequence: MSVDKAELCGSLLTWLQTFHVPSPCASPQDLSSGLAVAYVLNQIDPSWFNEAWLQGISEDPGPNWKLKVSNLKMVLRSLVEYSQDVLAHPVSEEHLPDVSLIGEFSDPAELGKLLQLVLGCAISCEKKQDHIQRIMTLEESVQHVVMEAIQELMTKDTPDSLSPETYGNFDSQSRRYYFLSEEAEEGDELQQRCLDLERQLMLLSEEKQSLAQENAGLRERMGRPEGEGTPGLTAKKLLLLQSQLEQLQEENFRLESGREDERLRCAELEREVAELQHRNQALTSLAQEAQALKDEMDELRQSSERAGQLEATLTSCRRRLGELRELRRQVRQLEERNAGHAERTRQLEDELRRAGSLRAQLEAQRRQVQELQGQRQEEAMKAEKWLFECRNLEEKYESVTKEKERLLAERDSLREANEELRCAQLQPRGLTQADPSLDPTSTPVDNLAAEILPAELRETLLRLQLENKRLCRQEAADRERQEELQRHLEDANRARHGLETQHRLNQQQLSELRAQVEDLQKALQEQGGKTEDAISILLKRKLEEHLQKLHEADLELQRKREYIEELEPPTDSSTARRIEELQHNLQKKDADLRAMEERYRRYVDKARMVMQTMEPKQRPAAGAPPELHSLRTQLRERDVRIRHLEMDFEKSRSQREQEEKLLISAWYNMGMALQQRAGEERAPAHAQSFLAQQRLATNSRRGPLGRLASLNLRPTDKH

T5: mitotic kinesin-like protein 1 (MKLP1) (human (endogenous in HEK293T)) (UniProt Q02241)
T5 sequence: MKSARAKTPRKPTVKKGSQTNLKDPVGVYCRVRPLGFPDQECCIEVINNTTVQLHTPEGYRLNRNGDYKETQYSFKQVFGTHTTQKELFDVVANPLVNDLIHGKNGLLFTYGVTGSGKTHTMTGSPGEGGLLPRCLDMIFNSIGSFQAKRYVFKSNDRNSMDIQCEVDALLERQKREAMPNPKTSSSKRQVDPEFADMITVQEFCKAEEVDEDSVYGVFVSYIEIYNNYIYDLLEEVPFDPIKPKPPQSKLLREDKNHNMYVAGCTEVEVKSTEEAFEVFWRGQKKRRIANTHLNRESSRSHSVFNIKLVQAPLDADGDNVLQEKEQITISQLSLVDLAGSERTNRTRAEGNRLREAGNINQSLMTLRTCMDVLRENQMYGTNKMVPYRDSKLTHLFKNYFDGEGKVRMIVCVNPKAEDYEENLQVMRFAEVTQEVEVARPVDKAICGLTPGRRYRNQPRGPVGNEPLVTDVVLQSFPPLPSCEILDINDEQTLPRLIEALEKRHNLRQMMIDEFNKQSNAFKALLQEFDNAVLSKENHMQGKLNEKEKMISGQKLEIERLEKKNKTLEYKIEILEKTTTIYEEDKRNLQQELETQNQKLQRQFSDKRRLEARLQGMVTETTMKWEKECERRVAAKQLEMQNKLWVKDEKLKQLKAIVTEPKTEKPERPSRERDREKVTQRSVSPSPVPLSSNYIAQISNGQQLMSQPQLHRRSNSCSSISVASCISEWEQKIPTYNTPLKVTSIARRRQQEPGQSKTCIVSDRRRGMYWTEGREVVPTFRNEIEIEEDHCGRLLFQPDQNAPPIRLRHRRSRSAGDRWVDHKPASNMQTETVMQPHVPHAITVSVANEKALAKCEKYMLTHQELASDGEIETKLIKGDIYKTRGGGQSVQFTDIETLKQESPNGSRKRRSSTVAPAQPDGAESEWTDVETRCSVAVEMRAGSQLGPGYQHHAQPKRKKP


Columns and labels:
[1] = biological target: T1, MBP-tagged Hook2 Hook+CC1 (N427) WT (human); experiment: pull-down; MBP-tagged Hook2 N427 (WT or mutants) on amylose beads incubated with whole-cell lysate of HEK293T cells (asynchronous, or harvested in cytokinesis for MKLP1), 4°C, 3 h, 20 mM Hepes pH 7.4, 350 mM NaCl, 1 mM DTT, 2 mM MgCl2, 0.1% Triton X-100, 2 mg/ml BSA; immunoblot; only the target purified
[2] = biological target: T2, MBP-tagged Hook2 N427 I150A (human); experiment: as above
[3] = biological target: T3, MBP-tagged Hook2 N427 Q143A (human); experiment: as above
[4] = biological target: T4, Hook2 (endogenous) (human (endogenous in HEK293T)); experiment: co-IP; endogenous proteins; HEK293T lysates in TAP lysis buffer (20 mM Tris-HCl pH 7.4, 150 mM NaCl, 0.5% NP-40) with antibody on protein-A/G beads, 3 h, 4°C; cells asynchronous or synchronized (G2, prometaphase, metaphase/anaphase, cytokinesis), with control or other siRNAs or Hook2 plasmids; immunoblot
[5] = biological target: T5, mitotic kinesin-like protein 1 (MKLP1) (human (endogenous in HEK293T)); experiment: as above

| binding [2] | binding [3] | binding [4] | binding [5] | Molecule | binding [1] |
| --- | --- | --- | --- | --- | --- |
| no binding | no binding | binds | – | p150^glued (from UniProt Q14203-1 1-1278) | binds |
| – | – | – | no binding | Hook3 (endogenous) (protein, UniProt Q86VS8 1-718) MFSVESLERAELCESLLTWIQTFNVDAPCQTVEDLTNGVVMAQVLQKIDPAYFDENWLNRIKTEVGDNWRLKISNLKKILKGILDYNHEILGQQINDFTLPDVNLIGEHSDAAELGRMLQLILGCAVNCEQKQEYIQAIMMMEESVQHVVMTAIQELMSKESPVSAGNDAYVDLDRQLKKTTEELNEALSAKEEIAQRCHELDMQVAALQEEKSSLLAENQVLMERLNQSDSIEDPNSPAGRRHLQLQTQLEQLQEETFRLEAAKDDYRIRCEELEKEISELRQQNDELTTLADEAQSLKDEIDVLRHSSDKVSKLEGQVESYKKKLEDLGDLRRQVKLLEEKNTMYMQNTVSLEEELRKANAARSQLETYKRQVVELQNRLSEESKKADKLDFEYKRLKEKVDSLQKEKDRLRTERDSLKETIEELRCVQAQEGQLTTQGLMPLGSQESSDSLAAEIVTPEIREKLIRLQHENKMLKLNQEGSDNEKIALLQSLLDDANLRKNELETENRLVNQRLLEVQSQVEELQKSLQDQGSKAEDSVLLKKKLEEHLEKLHEANNELQKKRAIIEDLEPRFNNSSLKIEELQEALRKKEEEMKQMEERYKKYLEKAKSVIRTLDPKQNQGAAPEIQALKNQLQERDRLFHSLEKEYEKTKSQREMEEKYIVSAWYNMGMTLHKKAAEDRLASTGSGQSFLARQRQATSSRRSYPGHVQPATAR | – |
